# In the supplement of paper PMC8728848:
# Some of the results follow.
# B1: PX14343H-pdi-506-26-506 (Parabacteroides distasonis) (protein)
# chain: QPTGTMTTDSKLTSKESALALTNSAYLKNTVFNKMTPGWGCNTILLLEYMTGKATSENSQSNYKDFQDLLVSDRSLYIEDWWQDCYAGIANCNLALQKLGEFENLDASLVNGYMAEVKFMRALYYFYLVRIFGDVPKITTVQSELGELQVSRAPVKEIYDEIIIPDLLEAEQSDLAFSDHTGRVSMGAVKALLADVYLTYAGYPLQGGKSYYAESAKRSLEVIKSNEYTLFTDYESLRLPSQNNKGEFIYQVQFSLNKRHNESVRIFLPSRSGISAYDLEYGSLIPTKEFVESFEKGDKRTEEKQYFFTNYKGHPSKFSPGAAELEFMDLNGYYIYKFFDQVAVDNTAKSDLNWSVYRYTDVLLMYAEAQVNADGTPNQQSIDIVNQIRGRAGLAPFKQTNASAFLEEVWDQRYFDLCYENKMWFDMLRTRKIRDDKSGEYVDFIGYKTNWGKVYTETQLLFPIPLSERQANPNLTQNQGY
# Tests used:
# Test in all cases: glycan array binding signal (z-score within array); higher = stronger binding
# Conditions in all cases: glycan notation: IUPAC condensed, linker removed
# [1] = molecular target: GalNAc(b1-4)GlcNAc(b1-2)Man
# In short: (§1)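 Glycan array data were curated from 3228 arrays in the Consortium for Functional Glycomics database and kept only where the protein sequence was available. Glycan names were converted to IUPAC-condensed notation, and columns mapping to the same glycan were averaged. The binding signal is a within-array Z-score, averaged across arrays of the same protein sequence at different concentrations or buffers and across linkers. Negative Z-scores can be read as non-binding.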
# [2] = molecular target: GalNAc(b1-4)GlcNAc(b1-2)Man(a1-3)[GalNAc(b1-4)GlcNAc(b1-2)Man(a1-6)]Man(b1-4)GlcNAc(b1-4)GlcNAc
# In short: as §1
# [3] = molecular target: GalNAc(b1-4)GlcNAc(b1-3)GalNAc(b1-4)GlcNAc
# In short: as §1
# GalNAc(b1-4)GlcNAc6S = molecular target: GalNAc(b1-4)GlcNAc6S
# In short: as §1
# GalNAc(b1-6)GalNAc = molecular target: GalNAc(b1-6)GalNAc
# In short: as §1
# GalNAc3S(b1-4)GlcNAc = molecular target: GalNAc3S(b1-4)GlcNAc
# In short: as §1
# GalNAc3S(b1-4)GlcNAc3S = molecular target: GalNAc3S(b1-4)GlcNAc3S
# In short: as §1
# [4] = molecular target: GalNAc3S(b1-4)[Fuc(a1-3)]GlcNAc
# In short: as §1
# GalNAc4S6S(b1-4)GlcNAc = molecular target: GalNAc4S6S(b1-4)GlcNAc
# In short: as §1
# GalNAc6S(b1-4)GlcNAc = molecular target: GalNAc6S(b1-4)GlcNAc
# In short: as §1
# Glc(a1-4)Glc = molecular target: Glc(a1-4)Glc
# In short: as §1
# [5] = molecular target: Glc(a1-4)Glc(a1-4)Glc(a1-4)Glc
# In short: as §1
# Glc(a1-6)Glc(a1-6)Glc = molecular target: Glc(a1-6)Glc(a1-6)Glc
# In short: as §1
# [6] = molecular target: Glc(a1-6)Glc(a1-6)Glc(a1-6)Glc
# In short: as §1
# Glc(b1-4)Glc = molecular target: Glc(b1-4)Glc
# In short: as §1
# Glc(b1-6)Glc = molecular target: Glc(b1-6)Glc
# In short: as §1
# GlcA(b1-3)Gal = molecular target: GlcA(b1-3)Gal
# In short: as §1
# GlcA(b1-3)GlcNAc = molecular target: GlcA(b1-3)GlcNAc
# In short: as §1
# GlcA(b1-6)Gal = molecular target: GlcA(b1-6)Gal
# In short: as §1
# [7] = molecular target: GlcA3S(b1-3)Gal(b1-4)GlcNAc(b1-2)Man
# In short: as §1
# [8] = molecular target: GlcA3S(b1-3)Gal(b1-4)GlcNAc(b1-3)Gal(b1-4)Glc
# In short: as §1
# [9] = molecular target: GlcNAc(a1-3)Gal(b1-4)GlcNAc
# In short: as §1
# [10] = molecular target: GlcNAc(a1-4)Gal(b1-3)GlcNAc
# In short: as §1
# [11] = molecular target: GlcNAc(a1-4)Gal(b1-4)GalNAc
# In short: as §1
# [12] = molecular target: GlcNAc(a1-4)Gal(b1-4)GlcNAc
# In short: as §1
# [13] = molecular target: GlcNAc(a1-4)Gal(b1-4)GlcNAc(b1-3)Gal(b1-4)Glc
# In short: as §1
# [14] = molecular target: GlcNAc(a1-4)Gal(b1-4)GlcNAc(b1-3)Gal(b1-4)GlcNAc
# In short: as §1
# [15] = molecular target: GlcNAc(a1-4)Gal(b1-4)GlcNAc(b1-3)Gal(b1-4)GlcNAc(b1-3)Gal(b1-4)GlcNAc
# In short: as §1
# [16] = molecular target: GlcNAc(a1-4)Gal(b1-4)GlcNAc(b1-3)Gal(b1-4)[Fuc(a1-3)]GlcNAc(b1-3)Gal(b1-4)[Fuc(a1-3)]GlcNAc
# In short: as §1
# [17] = molecular target: GlcNAc(a1-6)Gal(b1-4)GlcNAc
# In short: as §1
# [18] = molecular target: GlcNAc(b1-2)Gal(b1-3)GalNAc
# In short: as §1
# [19] = molecular target: GlcNAc(b1-2)Man(a1-3)[GlcNAc(b1-2)Man(a1-6)]Man(b1-4)GlcNAc(b1-4)GlcNAc
# In short: as §1
# [20] = molecular target: GlcNAc(b1-2)Man(a1-3)[GlcNAc(b1-2)Man(a1-6)]Man(b1-4)GlcNAc(b1-4)[Fuc(a1-6)]GlcNAc
# In short: as §1
# [21] = molecular target: GlcNAc(b1-2)Man(a1-3)[GlcNAc(b1-4)][GlcNAc(b1-2)Man(a1-6)]Man(b1-4)GlcNAc(b1-4)GlcNAc
# In short: as §1
# [22] = molecular target: GlcNAc(b1-2)Man(a1-3)[GlcNAc(b1-4)][GlcNAc(b1-2)Man(a1-6)]Man(b1-4)GlcNAc(b1-4)[Fuc(a1-6)]GlcNAc
# In short: as §1
# [23] = molecular target: GlcNAc(b1-2)[GlcNAc(b1-4)]Man(a1-3)[GlcNAc(b1-2)Man(a1-6)]Man(b1-4)GlcNAc(b1-4)GlcNAc
# In short: as §1
# [24] = molecular target: GlcNAc(b1-2)[GlcNAc(b1-4)]Man(a1-3)[GlcNAc(b1-4)][GlcNAc(b1-2)Man(a1-6)]Man(b1-4)GlcNAc(b1-4)GlcNAc
# In short: as §1
binder,measurement,setting,value
B1,glycan array binding signal (z-score),[1],-0.255
same,glycan array binding signal (z-score),[2],-0.111
same,glycan array binding signal (z-score),[3],-0.216
same,glycan array binding signal (z-score),GalNAc(b1-4)GlcNAc6S,-0.261
same,glycan array binding signal (z-score),GalNAc(b1-6)GalNAc,-0.371
same,glycan array binding signal (z-score),GalNAc3S(b1-4)GlcNAc,-0.557
same,glycan array binding signal (z-score),GalNAc3S(b1-4)GlcNAc3S,-0.407
same,glycan array binding signal (z-score),[4],-0.134
same,glycan array binding signal (z-score),GalNAc4S6S(b1-4)GlcNAc,-0.453
same,glycan array binding signal (z-score),GalNAc6S(b1-4)GlcNAc,0.278
same,glycan array binding signal (z-score),Glc(a1-4)Glc,-0.288
same,glycan array binding signal (z-score),[5],-0.309
same,glycan array binding signal (z-score),Glc(a1-6)Glc(a1-6)Glc,-0.388
same,glycan array binding signal (z-score),[6],-0.228
same,glycan array binding signal (z-score),Glc(b1-4)Glc,-0.416
same,glycan array binding signal (z-score),Glc(b1-6)Glc,-0.393
same,glycan array binding signal (z-score),GlcA(b1-3)Gal,-0.517
same,glycan array binding signal (z-score),GlcA(b1-3)GlcNAc,-0.297
same,glycan array binding signal (z-score),GlcA(b1-6)Gal,-0.25
same,glycan array binding signal (z-score),[7],-0.222
same,glycan array binding signal (z-score),[8],-0.433
same,glycan array binding signal (z-score),[9],-0.491
same,glycan array binding signal (z-score),[10],-0.529
same,glycan array binding signal (z-score),[11],-0.204
same,glycan array binding signal (z-score),[12],-0.26
same,glycan array binding signal (z-score),[13],-0.465
same,glycan array binding signal (z-score),[14],-0.247
same,glycan array binding signal (z-score),[15],-0.419
same,glycan array binding signal (z-score),[16],0.846
same,glycan array binding signal (z-score),[17],-0.506
same,glycan array binding signal (z-score),[18],-0.544
same,glycan array binding signal (z-score),[19],-0.515
same,glycan array binding signal (z-score),[20],-0.216
same,glycan array binding signal (z-score),[21],-0.462
same,glycan array binding signal (z-score),[22],-0.414
same,glycan array binding signal (z-score),[23],-0.368
same,glycan array binding signal (z-score),[24],-0.297
